The other results are listed elsewhere or left out. At the low end of the ranking, values are background and their order means little.
biological target: SIX1 homeodomain (reference allele) (UniProt Q15475); assay: universal protein binding microarray; settings: Universal all-10-mer PBM (8x60K, AMADID 030236), 300 nM GST-tagged protein, Alexa Fluor 488 anti-GST; buffer, salt, pH and temperature not stated; high values mean tight binding; most listed sequences are background and not binding sites; double strand, one strand shown

| Sequence | binding signal [E-score] |
| --- | --- |
| CTACGTTC | -0.276 |
| GATGCGAA | -0.12 |
| CGACGTAA | -0.104 |
| AAAAGGAC | -0.317 |
| AAATCTCA | -0.065 |
| ATATACTA | 0.256 |
| CATAAACA | -0.134 |
| CTGGAGGC | -0.134 |
| CTTGACGC | -0.132 |
| GAATATTA | 0.104 |
| AAAAGGCT | -0.0604 |
| GTGCCCGA | 0.0238 |
| ATGTCCGG | -0.139 |
| AGCATAAA | -0.178 |
| CAGGGCCG | -0.14 |
| AGGCCAAG | -0.118 |
| CCTGACTC | -0.207 |
| CCGAGGAA | -0.0467 |
| AGTCAAAT | -0.193 |
| ATTGTGTG | 0.0142 |
| CCTGAATC | 0.0856 |
| GAGGTCTA | -0.00498 |
| ACCTGGAA | -0.0904 |
| AACATACG | 0.0216 |
| CAACCGTA | -0.247 |

| Sequence | binding signal [E-score] |
| --- | --- |
| CCCTTGAG | 0.0543 |
| GGAGTGAC | -0.104 |
| ATTGGACC | -0.028 |
| AGCTATTA | -0.0731 |
| ATCCGCGG | 0.305 |
| GCATTGCA | -0.0415 |
| AAAATAAA | -0.209 |
| GGACTAAC | -0.288 |
| GCCCTGAA | -0.225 |
| CCTTAAGC | -0.11 |
| GCCAATCC | 0.111 |
| CTCAGATA | 0.31 |
| CGTAGCGA | 0.0205 |
| TATTCTCA | 0.19 |
| GTACTAGA | -0.0126 |
| CATCGCGG | -0.0658 |
| AACGCCGG | -0.11 |
| CTATAGAC | -0.0375 |
| CCACGCAC | -0.177 |
| ACAACAAT | 0.029 |
| GCACGACC | 0.121 |
| GGGTGCAA | 0.144 |
| AGGTAATG | -0.208 |
| CTAGTCTC | -0.137 |
| ATAGTCGC | 0.0924 |

| Sequence | binding signal [E-score] |
| --- | --- |
| GCGGGGGA | 0.227 |
| TCGGTTCA | 0.0327 |
| CTGCATCA | 0.0374 |
| ACTTACAG | -0.0465 |
| ATACGAGC | 0.23 |
| ACCATACC | 0.154 |
| TCTACCCA | 0.221 |
| ACTATCTC | 0.209 |
| GATTCTAC | 0.139 |
| GACTGTCA | -0.238 |
| GCGGGCCC | -0.361 |
| GTCAAAGA | -0.183 |
| AGTCGAAG | -0.135 |
| GACTTTCC | -0.221 |
| GGAAGTGA | 0.134 |
| CGGCCAAG | -0.223 |
| CTCGTAAG | -0.0564 |
| ACCCAAAC | 0.0551 |
| CGCAATTA | -0.158 |
| TGGACCCA | -0.173 |
| ATGCCCAT | 0.142 |
| ATCAGTAC | 0.224 |
| AGCAGTTA | -0.216 |
| ATTATGAC | -0.0338 |
| GGGGTGGA | 0.0103 |

| Sequence | binding signal [E-score] |
| --- | --- |
| ACCCACTG | -0.0215 |
| CACATCCC | 0.0267 |
| ATCCCGCG | 0.323 |
| GTGAGTCA | -0.332 |
| ACGCCTGA | 0.0439 |
| GAAGCCCA | -0.158 |
| AACGTCGC | -0.238 |
| ATGAACCA | 0.0508 |
| ATATAAAG | 0.154 |
| AAATGACT | -0.271 |
| AAACATCT | -0.302 |
| ATTGATTA | 0.00338 |
| ATCAGTGC | 0.0879 |
| TATCAATA | 0.407 |
| ATCGGGAG | 0.127 |
| CCTGGAAA | -0.351 |
| AACGATGG | -0.123 |
| AAATACCG | 0.178 |
| ATAACATA | 0.0247 |
| ATATGGTG | 0.362 |
| TTCGTAAA | -0.198 |
| AGCCTTTG | -0.0186 |
| ATGTTAAA | -0.21 |
| GTGCACTA | -0.0712 |
| GTGACAGA | -0.127 |

| Sequence | binding signal [E-score] |
| --- | --- |
| ATCCAGAG | 0.304 |
| GTAACTAC | -0.0994 |
| CATCCGGC | 0.226 |
| CCGAGGCC | -0.00378 |
| GCGCAGAC | -0.204 |
| AGATTTAT | 0.0465 |
| AAAATGAA | -0.202 |
| ACAGACTG | -0.126 |
| AACCCTTA | -0.101 |
| GCTCTCAC | -0.102 |
| CAGCTTGG | -0.14 |
| TGGTGACA | 0.156 |
| TATAGTAA | 0.0109 |
| CAGCGAGA | 0.0719 |
| ACAATAAG | 0.0839 |
| AATTGTTA | -0.208 |
| CATACAGC | -0.215 |
| TTAAGTAA | 0.0754 |
| AAGGGTGA | 0.21 |
| CAACGGGC | -0.242 |
| AAAGCAAA | -0.224 |
| CTACCGCC | -0.176 |
| GACCGCTC | -0.262 |
| CCCGTTCA | -0.0331 |
| GATAATCC | 0.34 |

| Sequence | binding signal [E-score] |
| --- | --- |
| GCCTAAAC | -0.153 |
| ATCCGTGA | 0.327 |
| GGCCATCA | -0.197 |
| CGGGAAAG | -0.114 |
| AGTGCGGA | 0.044 |
| ACTGTTGC | -0.217 |
| AAGAGCCT | -0.103 |
| CGCTACCG | -0.152 |
| AGAAGTGA | 0.0694 |
| AGAGGGAT | 0.308 |
| CTGACAGC | -0.192 |
| ACCAATGA | -0.00671 |
| CATGTAGC | -0.0701 |
| CTCGAGGC | -0.0609 |
| CTCACTGC | 0.0968 |
| AGGGTACC | 0.00996 |
| CGGGTTGC | -0.0248 |
| AATCACGC | -0.19 |
| CGGCCCAG | -0.271 |
| AGCGGACC | -0.271 |
| AAGGTAGG | 0.123 |
| AAATGCTC | -0.349 |
| CGGCCTCC | -0.11 |
| CGCACCTC | -0.105 |
| CTAATATC | 0.339 |

| Sequence | binding signal [E-score] |
| --- | --- |
| CTGTCAAC | -0.123 |
| ATCTCAAT | 0.183 |
| ATTTCCCC | -0.116 |
| ATGAAATC | -0.132 |
| AAGGGATT | 0.188 |
| AGTGATGA | 0.0123 |
| TACCCTCA | 0.118 |
| CCTACCCG | 0.0727 |
| CCCGTGGC | 0.0561 |
| TATTGAAA | -0.044 |
| ACAATTAC | -0.157 |
| ATCTAGAA | 0.109 |
| CGATTCGA | 0.0128 |
| CGATATTC | 0.317 |
| AATTTGGT | -0.248 |
| GATAGACC | 0.0784 |
| CCAACATC | 0.0858 |
| CCAGGCCC | -0.167 |
| AGAACTGC | -0.125 |
| ACAAGGCC | -0.301 |
| ATCGCAAG | 0.115 |
| ACCACATA | 0.145 |
| GGTTTACA | 0.0179 |
| CAGGGGTC | 0.113 |
| TATGGGAA | -0.00618 |

| Sequence | binding signal [E-score] |
| --- | --- |
| ATTTATCG | -0.0822 |
| AATCTCAA | 0.0868 |
| GACGCGTA | 0.0684 |
| CCAAAATC | -0.165 |
| AAGCACCT | -0.0882 |
| CAGGAGTC | -0.0727 |
| ACGGGCCA | -0.139 |
| ACTCGAAA | -0.0729 |
| CTCGTCCA | -0.205 |
| GACACAAA | 0.0355 |
| CGCTCGCA | -0.179 |
| ATCATCTG | 0.374 |
| ATATGCTA | 0.241 |
| CGCTAGCG | -0.12 |
| CACAATGG | -0.0604 |
| CCGTCCGA | -0.114 |
| GATGAATA | 0.148 |
| AATGGGCC | -0.235 |
| CTGTCTAC | -0.01 |
| CACGAGTC | -0.0944 |
| ATGTAGCG | -0.275 |
| AGAGCCCT | -0.119 |
| CACGGTCG | -0.193 |
| CTGGGGTA | 0.259 |
| GATTACAA | 0.0322 |

| Sequence | binding signal [E-score] |
| --- | --- |
| CTTGCTCC | -0.125 |
| CATTCTGC | -0.249 |
| ACTGCCCC | -0.102 |
| TAGTTTAA | -0.0896 |
| GGGACAGA | -0.000575 |
| GCGTGCTA | -0.18 |
| CACGAAAG | -0.178 |
| CCCTTTGA | 0.0539 |
| AACCTTCT | -0.0743 |
| CTAGTAAA | -0.0278 |
| AGCGAGCA | -0.117 |
| AAATATGA | 0.0816 |
| CCCACATC | -0.102 |
| GAAAGGGA | -0.12 |
| CCTTTCTC | -0.141 |
| CGTACGCA | -0.231 |
| ACTTCATC | -0.105 |
| GACCTCCA | -0.0668 |
| AAGGCGTA | 0.0347 |
